Where a name gives a salt, the structure may show the parent alone. The list shows a part of the results. Many values rest on one well or one pass, so single values are uncertain.
How the values were obtained:
Test in all cases: proliferation Z-score within cell line (SRB, relative to all inhibitors screened on that line); triple-negative breast cancer lines and a kinase inhibitor library; SRB is the sulforhodamine B protein stain; higher = less growth inhibition (more resistant)
Settings in all cases: concentration: 1 µM; 4 days
Bt20 = system: Bt20
Bt549 = system: Bt549
HCC1143 = system: HCC1143
HCC1806 = system: HCC1806
HCC1937 = system: HCC1937
HCC38 = system: HCC38
HCC70 = system: HCC70
Hs578T = system: Hs578T
MDA-MB-231 = system: MDA-MB-231
MDA-MB-435s = system: MDA-MB-435s
MDA-MB-436 = system: MDA-MB-436
MDA-MB-453 = system: MDA-MB-453
MDA-MB-468 = system: MDA-MB-468
SKBR7 = system: SKBR7
SUM1315MO2 = system: SUM1315MO2
SUM149PT = system: SUM149PT
SUM159PT = system: SUM159PT
SUM185PE = system: SUM185PE
SUM229PE = system: SUM229PE
SUM52PE = system: SUM52PE
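Also: Single-dose primary screen of a 378-member kinase inhibitor library in 96-well plates, with growth read as absorbance of protein-bound SRB dye after TCA fixation.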

| Compound | proliferation Z-score within cell line (Bt20) | proliferation Z-score within cell line (Bt549) | proliferation Z-score within cell line (HCC1143) | proliferation Z-score within cell line (HCC1806) | proliferation Z-score within cell line (HCC1937) | proliferation Z-score within cell line (HCC38) | proliferation Z-score within cell line (HCC70) | proliferation Z-score within cell line (Hs578T) | proliferation Z-score within cell line (MDA-MB-231) | proliferation Z-score within cell line (MDA-MB-435s) | proliferation Z-score within cell line (MDA-MB-436) | proliferation Z-score within cell line (MDA-MB-453) | proliferation Z-score within cell line (MDA-MB-468) | proliferation Z-score within cell line (SKBR7) | proliferation Z-score within cell line (SUM1315MO2) | proliferation Z-score within cell line (SUM149PT) | proliferation Z-score within cell line (SUM159PT) | proliferation Z-score within cell line (SUM185PE) | proliferation Z-score within cell line (SUM229PE) | proliferation Z-score within cell line (SUM52PE) |
| --- | --- | --- | --- | --- | --- | --- | --- | --- | --- | --- | --- | --- | --- | --- | --- | --- | --- | --- | --- | --- |
| CCNc1nc(Nc2cc(F)c(C(=O)N3CCOCC3)cc2OC)ncc1C(F)(F)F | 0.778 | 0.479 | 0.567 | 0.915 | 0.408 | 0.41 | 0.484 | 0.553 | 0.621 | 0.637 | 0.494 | 0.623 | 0.764 | 0.719 | 0.822 | 0.479 | 0.414 | 0.671 | 0.209 | 0.79 |
| CCc1ccc(/C=C2/SC(=S)NC2=O)cc1 | 0.471 | 0.55 | 0.586 | 0.657 | 0.62 | 0.496 | 0.572 | 0.481 | 0.685 | 0.712 | 0.822 | 0.824 | 0.747 | 0.8 | 0.31 | 0.704 | 0.525 | 0.286 | 0.218 | 0.529 |
| COc1ccc(COc2cc3oc(=O)c4cc(C(C)O)ccc4c3cc2OC)cc1 (stereo not given) [Palomid 529 (P529)] | 0.629 | 0.726 | 0.486 | 0.456 | 0.519 | 0.325 | 0.418 | 0.659 | 0.577 | 0.66 | 1.08 | 0.596 | 0.687 | 0.394 | 0.555 | 0.629 | 0.484 | 0.709 | 0.207 | 0.8 |
| C#Cc1cccc(Nc2ncnc3cc(OCCOC)c(OCCOC)cc23)c1 [Erlotinib HCl (OSI-744)] | -0.143 | 0.371 | 0.674 | -1.09 | 0.874 | 0.421 | 0.767 | 0.316 | 0.804 | 0.693 | 0.922 | 0.944 | -0.703 | 1.1 | 0.912 | -0.646 | 0.478 | 0.657 | -0.144 | 1.07 |
| C=CC(=O)Nc1cccc(Oc2nc(Nc3ccc(N4CCN(C)CC4)cc3)ncc2Cl)c1 | -1.03 | -0.308 | 0.639 | -1.99 | 0.772 | 0.509 | 0.928 | 0.181 | -1.48 | -1.27 | 0.493 | -1.24 | -1.81 | -0.21 | -1.25 | -2.43 | 0.547 | -0.906 | -0.962 | -1.28 |
| CNC(=O)c1cccc(-c2ccc3c(N4CCOC[C@@H]4C)nc(N4CCOC[C@@H]4C)nc3n2)c1 | -1.41 | -1.86 | -1.48 | -1.15 | -1.75 | -0.901 | -1.73 | -2.04 | -1.2 | -1.45 | -1.64 | -1.54 | -1.18 | -1.64 | -1.5 | -1.18 | -1.33 | -1.44 | -1.29 | -1.19 |
| O=c1c(-c2ccc(O)cc2)coc2cc(O)cc(O)c12 [Genistein] | -0.121 | 0.394 | 0.691 | 0.481 | 0.857 | 0.319 | 0.477 | 0.547 | 0.632 | 0.779 | 0.513 | 0.459 | 0.571 | -0.0951 | 0.594 | 0.37 | 0.383 | -0.0161 | 0.0525 | 0.449 |
| NC(=O)c1cnc(N[C@@H]2CCCC[C@@H]2N)nc1Nc1cccc(-n2nccn2)c1 | 0.944 | 0.62 | 0.684 | 0.937 | 0.618 | 0.523 | 0.48 | 0.465 | 0.46 | 0.579 | 0.345 | 0.655 | 0.934 | 0.828 | 0.463 | 0.726 | 0.396 | -0.377 | 0.573 | 0.0675 |
| COc1cc2ncc(-c3ccccc3)nc2cc1OC [Tyrphostin AG 1296] | 0.393 | 0.136 | 0.327 | 0.172 | 0.387 | 0.391 | 0.276 | 0.503 | 0.929 | 0.442 | 0.466 | 0.436 | 0.7 | -0.461 | 0.427 | 0.0716 | 0.333 | 0.23 | 0.237 | 0.776 |
| CCCS(=O)(=O)Nc1ccc(F)c(C(=O)c2c[nH]c3ncc(Cl)cc23)c1F | -0.0385 | 1.03 | 1.1 | 1.45 | 0.907 | 0.717 | 0.94 | 0.848 | 0.589 | -1.78 | 1.26 | 0.923 | 0.509 | 0.895 | -0.122 | 0.515 | 0.674 | -0.15 | 1.4 | 0.00644 |
